According to PubChem BioAssay AID1963576 (National Center for Advancing Translational Sciences (NCATS), 2024):
Among all 46,000 compounds or so, about 60 (0.1%) were called active. Not shown: some 3% with an inconclusive outcome. The call rests on the fitted dose curve; in most records, active means well fitted inhibition curve with a large enough effect; inconclusive means small, poorly fitted or top-dose-only effect; inactive means no such curve, though single readings can be large or run the other way. This is one part of the list.

assay: Primary qHTS assay for Inhibitors of ovarian cancer metastasis using an organotypic tumor microenvironment (TME) model.; further: nearly all actives have a fitted effect of over 65% in size;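 on activity change, negative = inhibition: plate controls were DMSO wells for no effect and tomatine positive control wells for full effect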; settings: SKOV3ip1-GFP adhesion/invasion on 3D omental model, fluorescence; series mostly up to 45.8 µM; activity change, negative = inhibition: at the top concentration
Outline: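 Adhesion/invasion was scored as fixed GFP-labeled SKOV3ip1 cell counts (488/509 nm), normalized to DMSO and tomatine controls. Cancer cells in serum-free medium, with four compound doses (0.36-46 umol/L), sat 2 hr at RT then 16 hr at 37 C on a 48 hr fibroblast/mesothelial/ECM culture.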

Activity change, negative = inhibition, inactive:
CCOc1ccccc1CNC(=O)CCCn1c(=O)c2cccn2c2cccnc21 6.67%, Cc1ccc2onc(CC(=O)N3CCN(c4ccccc4F)CC3)c2c1 3.51%, Cc1oc2ccc(O)c(CN3CCOCC3)c2c1C(=O)Nc1ccc(C(C)C)cc1 -8.71%, CC(=O)N1c2ccccc2CC1C(=O)N1CCN(c2cccc(C)c2C)CC1 (configuration not stated) 37.7%, Clc1ccccc1CSc1nncn2c1cc1occc12 -8.85%, O=C(CCCn1c(=O)c2cccn2c2ccccc21)Nc1cccc(Cl)c1 -0.439%, CCCCN(CC)C(=O)c1c[nH]c2ccc(S(=O)(=O)Nc3cccc(OC)c3)cc2c1=O 2.26%, COc1ccc(NC(=O)C2=C(C)Nc3c(C(=O)Nc4ccc(C)cc4)cnn3C2c2cccc(Cl)c2)cc1 (configuration not stated) -1.23%, CCC(=O)O[C@]1(C(=O)SCF)[C@H](C)C[C@H]2[C@@H]3C[C@H](F)C4=CC(=O)C=C[C@]4(C)[C@@]3(F)[C@@H](O)C[C@@]21C 1.92%, Cc1ccc(NC(=O)C2CCN(S(=O)(=O)c3cccs3)CC2)cc1 6.9%, COC(=O)c1c(C)sc(-c2c(-c3ccc(F)cc3)[nH]c3[nH]c(=O)[nH]c(=O)c23)c1O -6.49%, CCC(=O)N1CCc2cc(S(=O)(=O)CCC(=O)NCc3ccccc3Cl)ccc21 3.83%, CCCc1nn2c(=O)cc(COC(=O)c3ccccc3NC(=O)C3CCCCC3)nc2s1 3.26%, COc1ccc(C(=O)NCC(c2cccnc2)N2CCN(c3ccccc3F)CC2)cc1OC (configuration not stated) -2.57%, Cc1ccc(-n2c(SCc3nc(-c4ccc(Cl)cc4)no3)nnc2-c2ccncc2)cc1 15.6%, CC1=C(C(=O)OC2CCCCCC2)C(c2ccccc2Cl)CC(=O)N1 (configuration not stated) 1.06%, Cc1oc2ncn(C)c(=O)c2c1C(=O)N1CCN(c2ccc(Cl)cc2)CC1 -2.56%, COc1ccc(-c2c(C)nn3c(C(F)(F)F)cc(C)nc23)cc1OC 10.8%, COc1cccc(CNCCCSc2nnnn2C)c1 -11.5%, COc1ccc(Cn2c(C(=O)O)c(CNCCc3cccs3)c3ccc(OC)cc32)cc1 6.74%, CCOc1cccc(CC(=O)N2CCc3c([nH]c4ccccc34)C2c2ccc(OC)cc2)c1OCC (configuration not stated) 2.91%, Cc1nn(C)c2c1c(-c1ccccc1)cc(=O)n2Cc1c(F)cccc1Cl -8.97%, Cc1ccccc1Nc1c(-c2ccccc2O)nc2sccn12 -5.21%, O=C1c2oc3ccccc3c(=O)c2C(c2cccc(O)c2)N1Cc1ccc(F)cc1 (configuration not stated) 4.59%, COc1cc(C2C(C(=O)Nc3ccc(C)cc3C)=C(C)Nc3nc(SCc4ccccc4)nn32)cc(OC)c1OC (configuration not stated) -9.52%, CCN(c1ccccc1)S(=O)(=O)c1nnc(NC(=O)C(C)Oc2ccccc2)s1 (configuration not stated) -12.7%, COc1ccc(N(C(=O)c2ccc(C)cc2)S(=O)(=O)c2ccc(Cl)cc2)cc1 -0.347%, CCOC(=O)Cc1ccc(NC(=O)N2CCC(CN3CCC(C)CC3)CC2)cc1 0.0932%, CCc1cccc(NC(=O)c2sc3nc[nH]c(=O)c3c2C)c1 -0.278%, O=C1CN(C(=O)c2ccc(S(=O)(=O)N3CCCC3)cc2)C(c2ccc(F)cc2)c2cc(F)ccc2N1 (configuration not stated) -4.02%, CCc1ccc(NS(=O)(=O)c2ccc3[nH]cc(C(=O)N4CCCCCC4)c(=O)c3c2)cc1 8.73%, Cc1cccc(-c2nnc(SCC(=O)NC3CCCCC3)o2)c1 0.292%, CCOc1ccc(CCNC(=O)c2ccc(C)c(-n3c(C)nc4cccnc43)c2)cc1OCC 8.59%, Nc1[nH]c(=O)ncc1F 2.81%, Cc1ccc(CNC(=O)c2cnn3c(C)c(Cc4c(F)cccc4Cl)c(C)nc23)cc1 3.25%, Cc1ccc2oc3c(c(=O)c2c1)C(c1cccc(O)c1)N(CCCN1CCOCC1)C3=O (configuration not stated) -2.47%, CCN(Cc1ccccc1)C(=O)c1cc2ccc3cccnc3c2[nH]1 4.36%, COc1ccc(N(Cc2cccs2)C(=O)COc2ccc([N+](=O)[O-])cc2)cc1 -6.43%, Cc1cc(Br)ccc1NC(=O)CN1C(=O)c2cccnc2Sc2ccccc21 -6.34%, CCOc1ccc(C(=O)Nc2cc(-c3ccccc3)no2)cc1 1.82%, O=C(c1ccco1)n1nc(-c2ccc(Cl)cc2)nc1NCc1ccc(F)cc1 25.6%, CN1CCSc2ccc(C(=O)NCc3ccccc3)cc21 -5.47%, CCCCN(Cc1ccco1)C(=O)Cn1ncc2c([nH]c3ccccc32)c1=O -0.794%, CN1c2ccccc2C(=O)N2CCc3c([nH]c4ccccc34)C21 (configuration not stated) -0.694%, Cc1cccc(Cn2cccc2CNS(=O)(=O)c2ccc(C)c(C)c2)c1 9.55%, Cc1nc(-n2nc(C)c(Cc3ccc4c(c3)OCO4)c2C)sc1C(=O)Nc1ccc(Cl)cc1 -1.29%, CCCOc1cccc(C2c3c(oc4ccc(F)cc4c3=O)C(=O)N2Cc2ccc3c(c2)OCO3)c1 (configuration not stated) 0.184%, Cc1ccc(-n2cnc3cc(C(=O)NCc4ccccc4Cl)ccc32)c(C)c1 -10.4%

outcome, inactive:
COc1ccc(-c2cc(C)no2)cc1S(=O)(=O)N1CCN(c2ccc(C(C)=O)cc2)CC1, Cc1ccc2oc(-c3cccc(NC(=O)c4cccc5c(Br)cccc45)c3)nc2c1, COc1ccc(NC(=O)CC2Nc3cccc4cccc(c34)NC2=O)cc1 (configuration not stated), COCCCNC(=O)N1CCN(c2nnc(C)c3c(C)n(-c4ccc(Cl)cc4)nc23)CC1, CCc1ccc(NC(=O)CN(c2ccc(C)cc2)S(=O)(=O)c2c(C)nn(C)c2C)cc1, COc1ccc(CCNC(=O)CCc2c(C)nc3c(-c4ccc(F)cc4)c(C)nn3c2C)cc1OC, Cc1ccccc1CN1C(=O)c2ccccc2S(=O)c2ccc(C(=O)NCc3ccccc3)cc21 (configuration not stated), O=C(c1cc(-c2ccc(Cl)cc2)on1)N(Cc1ccc(F)cc1)Cc1ccco1, CC(C)Sc1ncc(Cl)c(C(=O)Nc2c(C(=O)Nc3ccccc3)oc3ccccc23)n1, CCOc1ccccc1NC(=O)c1cc2ccc3cccnc3c2[nH]1, COc1ccc(CC(=O)NCc2ccc3c(c2)CCN3C(=O)c2cccc(C)c2)cc1, Cc1ccc2nc(N3CCN(c4ccccc4F)CC3)c3nnnn3c2c1, Clc1ccccc1Nc1ncnc2c1nc1n2CCCCC1, O=C(Nc1ccc2nc(SCCOc3ccccc3)sc2c1)c1ccc2c(c1)OCO2
